A compilation of properties of binary mixtures (doi:10.1007/s10973-015-4957-6)
The densities may have been worked out from excess volumes.

Test: xn = mol fraction of the nth substance listed
Settings: 101 kPa

CN(CCO)CCO + CCCCCCn1cc[n+](C)c1.FC(F)(F)C(F)(F)[P-](F)(F)(F)(C(F)(F)C(F)(F)F)C(F)(F)C(F)(F)F
x1 = 1
Settings | mass density [kg/m3]
308.15 K | 1030.3
313.15 K | 1026.6
318.15 K | 1023
328.15 K | 1015.7

CCCCCCn1cc[n+](C)c1.FC(F)(F)C(F)(F)[P-](F)(F)(F)(C(F)(F)C(F)(F)F)C(F)(F)C(F)(F)F + CN(CCO)CCO
mass density [kg/m3]
Settings | x2 = 0 | x2 = 0.1007 | x2 = 0.1997 | x2 = 0.2961 | x2 = 0.4001 | x2 = 0.4999 | x2 = 0.5974 | x2 = 0.7005 | x2 = 0.8011 | x2 = 0.8993
303.15 K | 1544.2 | 1525.8 | 1505.5 | 1482.6 | 1453.2 | – | 1382.1 | 1329.8 | 1262.5 | 1172.2
308.15 K | 1538.7 | 1520.3 | 1500 | – | 1447.8 | 1415.5 | 1376.9 | 1324.9 | – | 1167.8
313.15 K | 1533.3 | 1514.8 | – | 1471.8 | 1442.5 | 1410.2 | – | 1320 | 1253.1 | 1163.5
318.15 K | 1527.8 | 1509.4 | 1489 | 1466.3 | – | 1404.9 | 1366.6 | 1315.1 | 1248.5 | 1159.1
323.15 K | 1522.5 | – | 1483.5 | 1460.9 | 1431.7 | 1399.5 | – | 1310.1 | 1243.8 | 1154.9
328.15 K | 1517.1 | – | 1478 | 1455.4 | 1426.3 | – | 1356 | 1305.1 | 1239.1 | 1150.5
